# Some of the results follow. At the low end of the ranking the order means little.
# System: MYC (p64) + MAX (p21), in MYC:MAX
# Assay: protein-binding microarray (anti-MAX antibody)
# Conditions: PBM: 15 mM Tris-HCl pH 7.5, 100 mM KCl, 0.075% NP40, 7.5 mM beta-mercaptoethanol, 375 ng/ul BSA, 8 ng/ul poly(dA-dT):(dA-dT), 550 ng complex, 60 min, room …; high values mean tight binding; double strand, one strand shown; sequences stand for … in CCGGC…TTAATAGCTAAGATTACTATATCGACG
row,Sequence,binding signal (log2 normalized fluorescence)
1,TGATGGTCAGTA,0.296
2,TGGCGCGTGGTA,0.452
3,TGAATCTTTGTA,-0.0439
4,TGAGGAGTGGTA,0.178
5,TGATCTGCCGTA,-0.178
6,TCACACGATGTA,0.603
7,TGAGTGGACGTA,0.0641
8,TGATACTCAGTA,0.0572
9,TGAGTCTTCGTA,-0.211
10,TGATCAATCGTA,-0.024
11,TGAACCTAGGTA,0.185
12,TGAACACGGGTA,0.444
13,TAAAACGTTGTA,0.589
14,TGATACTACGTA,0.0703
15,TGAACCTCAGTA,0.265
16,TGACATTAGGTA,0.373
17,TGATGCACTGTA,0.122
18,TGATCACATGTA,0.704
19,TGAAATTAAGTA,-0.0181
20,TGTCCCCTGGTA,-0.00889
21,TGATCAAGTGTA,0.195
22,TGAGCTAGGGTA,-0.194
23,TGATTAGGAGTA,-0.103
24,TTAATCGTGGTA,0.374
25,TGACACGTGGCG,0.519

row,Sequence,binding signal (log2 normalized fluorescence)
1,TGAGATCGCGTA,0.202
2,TGAACGAACGTA,0.0585
3,TGATGATCGGTA,-0.0807
4,TGAACAACAGTA,0.103
5,TGACGGAAAGTA,-0.011
6,TGACGGCACGTA,0.245
7,TGACATGCGGCA,0.628
8,TGATCCGGAGTA,-0.164
9,TGACGAACGGTA,0.134
10,TGACCACCCGTA,0.348
11,TGATTCTGTGTA,-0.00865
12,TGAGTTCTAGTA,-0.121
13,TGATATTTTGTA,-0.402
14,TGAAAGGGCGTA,-0.0196
15,TGACAGCTCGTA,0.116
16,TGAGGGAAAGTA,-0.0826
17,TGACGTCGCGTA,0.22
18,TGAACAGCAGTA,0.302
19,TGAGCACATGTA,0.511
20,TGACCGTGTGTA,0.341
21,TGACCCATAGTA,-0.0373
22,TGAACGTATGTA,0.29
23,TGATGGTATGTA,0.294
24,TGAGTGTGGGTA,0.248
25,TGATAGTGCGTA,0.231

row,Sequence,binding signal (log2 normalized fluorescence)
1,TGACCATCTGTA,0.326
2,TGACCGCAAGTA,0.2
3,TGAAGCTTGGTA,0.0269
4,AGAGAACGATGT,0.248
5,TGATGAGGGGTA,0.348
6,TGAGTTGTAGTA,-0.129
7,TGAGAGATTGTA,-0.173
8,TGACGCTATGTA,0.128
9,TGATCTTAGGTA,-0.24
10,TGACCTACGGTA,0.193
11,TGAAGCATGGTA,0.528
12,TGATTAAGCGTA,-0.0845
13,TGATCCTTGGTA,-0.0027
14,TGACTATAGGTA,-0.104
15,TGATTTTCGGTA,-0.043
16,TGATGCCACGTA,0.472
17,TGATGGGGGGTA,0.676
18,TGACTACGCGTA,0.287
19,TGAACCAGCGTA,0.122
20,TGACTGTAGGTA,0.178
21,TGAGCAGCGGTA,0.0954
22,TGATCTATAGTA,-0.169
23,TGATGACCGGTA,0.0179
24,TGACCAGGCGTA,0.0707
25,TGATTATGAGTA,-0.113

row,Sequence,binding signal (log2 normalized fluorescence)
1,TGACTTCAGGTA,0.148
2,TGACTTTGAGTA,-0.0354
3,TGAAACGGAGTA,0.0651
4,TGACAGGCGGTA,0.39
5,TGAACCTACGTA,0.131
6,TGACGAGTTGTA,0.0931
7,TGAGATAATGTA,-0.185
8,TGACGTAGCGTA,-0.162
9,TGATCATGGGTA,0.32
10,TGACGCGTGATA,0.675
11,TGATCGGCTGTA,-0.0719
12,TGAACAATAGTA,0.0267
13,TGAGAATTGGTA,-0.227
14,TGATGTACTGTA,0.281
15,TGAAATGGCGTA,0.153
16,TGAGAAGGCGTA,-0.061
17,TGACGGTTAGTA,0.0339
18,TGAATTAAAGTA,-0.173
19,TGAATTGCTGTA,0.163
20,TGAAATTGTGTA,0.0934
21,TGATGTCTAGTA,0.116
22,TGATCAGTAGTA,-0.0229
23,TGAAAATGGGTA,0.0408
24,TGACGTGTTGTA,0.258
25,TGAGCTGTAGTA,-0.029

row,Sequence,binding signal (log2 normalized fluorescence)
1,TGACATCTGGCA,0.303
2,TGATAAGCAGTA,-0.166
3,TGATGTAAGGTA,0.0753
4,TGACGCTAAGTA,0.0655
5,TGAGAAGATGTA,0.0771
6,TGATTTACAGTA,-0.0512
7,TGAGAAGTCGTA,-0.086
8,TGAGAGCGGGTA,0.0295
9,TGATCTCGCGTA,0.257
10,CGACACGCTGTA,0.538
11,TCAGAAGTGGTA,0.203
12,TGATTCTAGGTA,-0.199
13,TGACCGCTAGTA,0.067
14,TGAGCTTTTGTA,-0.129
15,TGATCCTCTGTA,-0.0198
16,TGAAACTCAGTA,-0.077
17,TGATAATATGTA,-0.144
18,TGAACATCAGTA,0.108
19,TGAGCCGGGGTA,-0.155
20,TGACCGCCCGTA,0.143
21,TGAAACTACGTA,0.0181
22,TGACTCTGCGTA,0.00745
23,TACGTGCCGCGA,0.356
24,TGAAACCATGTA,0.363
25,TGACGCCGCGTA,0.211

row,Sequence,binding signal (log2 normalized fluorescence)
1,TGATAACACGTA,0.413
2,TGACAGCCAGTA,0.0649
3,TGATAGTTAGTA,-0.14
4,TGATCAGGTGTA,0.37
5,TGAAGTATTGTA,0.103
6,TGAAGTTGTGTA,0.0113
7,TGACCAATGGTA,0.17
8,TGATAAATGGTA,0.0621
9,TGATTGGTAGTA,-0.171
10,TGATAGGATGTA,0.00287
11,TGACTATCGGTA,-0.109
12,TGATAAATAGTA,-0.137
13,TGAGATACTGTA,0.0136
14,ATCCACGTGGTA,0.471
15,TGACAGAGCGTA,0.145
16,TGACACGGGTTA,0.444
17,AATCTAGTCTAC,0.0163
18,TGCCAGGTAGTA,0.00772
19,TGACGCCGAGTA,-0.0126
20,TGAGCGTCCGTA,-0.17
21,TGAGCCGAAGTA,-0.142
22,TGACATTCTGTA,-0.0655
23,TGACTTTGGGTA,-0.176
24,TGACCCAAAGTA,0.072
25,TGATACACCGTA,0.107

row,Sequence,binding signal (log2 normalized fluorescence)
1,TGACTGATCGTA,0.13
2,TGATTTCTAGTA,-0.158
3,TGAAGCTTCGTA,0.0294
4,TGAGGAGGTGTA,-0.0208
5,TGACACATTGTA,0.375
6,TGAAGGGCAGTA,-0.0227
7,TGAAGGGATGTA,0.0676
8,TGAACGTTCGTA,0.265
9,TGAACCGACGTA,0.0827
10,TAACACTTGGTA,0.334
11,TGACCCGGTGTA,0.0386
12,TGAGACCCTGTA,0.0923
13,TGACCGTCCGTA,0.211
14,TGACACGTTTAA,0.5
15,TGAATTATTGTA,-0.0941
16,TGAATGCCCGTA,-0.026
17,TGATTTTGTGTA,-0.109
18,TGACCTTTGGTA,0.00898
19,TGACCTTAAGTA,0.117
20,TGAGATATCGTA,0.0131
21,TGACACTCGGGA,0.262
22,TGAGAGGAGGTA,-0.0221
23,TGAAGGTTGGTA,0.0682
24,TGACGGGCCGTA,0.193
25,TGAATTCTTGTA,-0.0721

row,Sequence,binding signal (log2 normalized fluorescence)
1,TGATCCGTGGTA,0.151
2,TGACAGATTGTA,0.201
3,TGAACAGACGTA,0.177
4,TGACGTCATGTA,0.394
5,TGACCCTTTGTA,0.115
6,TGATATGTGGTA,0.21
7,TGAGCTACCGTA,0.106
8,TGAAACTGTGTA,0.119
9,TGATTCTCTGTA,-0.15
10,TGACCTACCGTA,0.209
11,TGAGATGTAGTA,0.0507
12,TGAACTTTAGTA,-0.0253
13,TGAGTTGCGGTA,0.0296
14,TAAGAAGTGGTA,0.209
15,TGACTGGTTGTA,0.021
16,TGATTTAGGGTA,-0.26
17,TGACGTACCGTA,0.255
18,TGACTCTAAGTA,-0.173
19,TGACACGATTTA,0.445
20,TGATCTTGCGTA,0.021
21,TGAGGCGAGTTT,0.245
22,TGAATGATTGTA,0.187
23,TGAGCATGTGTA,0.737
24,TGACGAACAGTA,-0.0252
25,TGATTGTCAGTA,-0.0168

row,Sequence,binding signal (log2 normalized fluorescence)
1,TGACAACAGGTA,0.0907
2,TGACACGTCGCA,0.416
3,TGAGTAGGGGTA,0.208
4,TGACTAGGTGTA,-0.0433
5,TGAAGCGAGGTA,0.249
6,TGAACGACTGTA,0.123
7,TGAGCGTCTGTA,-0.0215
8,TGACCACGTGTA,0.807
9,TGAGTATACGTA,0.0171
10,CCACACGTGGTA,0.945
11,TGATGGTACGTA,0.157
12,TGACTAGTCGTA,-0.0843
13,TGAGAGTTGGTA,-0.108
14,TGAGTATAGGTA,-0.243
15,TGAATACGGGTA,-0.0418
16,TGAGCCGTCGTA,-0.123
17,GGACAACTGGTA,0.137
18,TGAACAAAAGTA,-0.0482
19,TGAAATAATGTA,0.121
20,TGAGTCGCGGTA,0.0682
21,TGACAACTGGTT,0.195
22,TGAATTATCGTA,-0.0569
23,TGACTCCCGGTA,0.101
24,CGACATGTGGTA,0.663
25,TGACGCTTCGTA,0.132

row,Sequence,binding signal (log2 normalized fluorescence)
1,TGAGGTTAAGTA,-0.319
2,CGCCACGTAGTA,0.312
3,TGAGTATGGGTA,0.0873
4,TGAAGATCAGTA,-0.0886
5,TGACACGTGGCA,0.835
6,TGAGTAGTCGTA,-0.218
7,TGACTTTTAGTA,-0.0591
8,TGAGCTGAGGTA,-0.206
9,TGAATGGGCGTA,0.45
10,TGAGATGGTGTA,-0.0153
11,TGATGAGAGGTA,-0.0276
12,TGAGTGAGAGTA,-0.101
13,TGATGCACCGTA,0.308
14,TGACGTATTGTA,0.174
15,TGACGGTGGGTA,0.0267
16,TGACTGCAAGTA,0.204
17,TGACTGTCTGTA,-0.00359
18,TGAGTGATTGTA,-0.021
19,TGACACGTGACT,0.628
20,TGAGGTTGAGTA,-0.0766
21,TGATGCCTCGTA,0.1
22,TGATCTTGAGTA,0.000935
23,TGATAGACGGTA,-0.17
24,TGACGCAGGGTA,0.0395
25,TCTCACGTGGTA,0.891

row,Sequence,binding signal (log2 normalized fluorescence)
1,TGACAAAAGGTA,0.102
2,TGAGACATTGTA,0.0415
3,TGACACGGGATC,0.253
4,TGAACTCGAGTA,0.253
5,TGAAGCCCGGTA,-0.0353
6,TGACACGGCCTA,0.178
7,TGACAACCAGTA,0.216
8,TGACGTACTGTA,0.177
9,TGACCCATCGTA,0.155
10,TGAACTATGGTA,-0.0341
11,TGATGCTGTGTA,0.0588
12,TGACAGAGAGTA,0.0472
13,TGATCCACGGTA,0.285
14,TGACACGTCCCA,0.378
15,TGAGGTTACGTA,0.0304
16,TCCCACGTAGTA,0.395
17,TGAAGCGTCGTA,0.000584
18,TGAAAGTCGGTA,-0.126
19,TGACAGATCGTA,0.088
20,TGACGGTAAGTA,-0.0614
21,TGAGCCGTAGTA,-0.128
22,TGAGAGTGGGTA,-0.0178
23,TGATACCATGTA,0.254
24,TGAGGCCGCGTA,-0.0656
25,TGATGGATTGTA,0.0859

# — PMC5515408
